Reference: PubChem BioAssay AID1645882 (National Center for Advancing Translational Sciences (NCATS), 2021)
Screen size: about 16,000 compounds; about 120 (0.75%) were called active. Inconclusive results (about 4%) are left out. Calls follow the shape of the dose curve; as a rule, active = well fitted inhibition curve with a large enough effect; inconclusive = small, poorly fitted or top-dose-only effect; inactive = no such curve, though single readings can be large or run the other way. Some of the results follow.

molecular target: Rap guanine nucleotide exchange factor 3 (Homo sapiens) (UniProt O95398); assay: Validation qHTS for antagonist of cAMP-regulated guanine nucleotide exchange factor 3 (EPAC1); details: EPAC1 Rap1B-BODIPY-GDP exchange, fluorescence; series mostly up to 150 µM; activity change, negative = inhibition: at the top concentration;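 also: plate controls were DMSO for no effect and ATA control for full effect; nearly all actives have a fitted effect of over 75% in size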
Sequence of UniProt O95398 (O95398 whole entry, looked up): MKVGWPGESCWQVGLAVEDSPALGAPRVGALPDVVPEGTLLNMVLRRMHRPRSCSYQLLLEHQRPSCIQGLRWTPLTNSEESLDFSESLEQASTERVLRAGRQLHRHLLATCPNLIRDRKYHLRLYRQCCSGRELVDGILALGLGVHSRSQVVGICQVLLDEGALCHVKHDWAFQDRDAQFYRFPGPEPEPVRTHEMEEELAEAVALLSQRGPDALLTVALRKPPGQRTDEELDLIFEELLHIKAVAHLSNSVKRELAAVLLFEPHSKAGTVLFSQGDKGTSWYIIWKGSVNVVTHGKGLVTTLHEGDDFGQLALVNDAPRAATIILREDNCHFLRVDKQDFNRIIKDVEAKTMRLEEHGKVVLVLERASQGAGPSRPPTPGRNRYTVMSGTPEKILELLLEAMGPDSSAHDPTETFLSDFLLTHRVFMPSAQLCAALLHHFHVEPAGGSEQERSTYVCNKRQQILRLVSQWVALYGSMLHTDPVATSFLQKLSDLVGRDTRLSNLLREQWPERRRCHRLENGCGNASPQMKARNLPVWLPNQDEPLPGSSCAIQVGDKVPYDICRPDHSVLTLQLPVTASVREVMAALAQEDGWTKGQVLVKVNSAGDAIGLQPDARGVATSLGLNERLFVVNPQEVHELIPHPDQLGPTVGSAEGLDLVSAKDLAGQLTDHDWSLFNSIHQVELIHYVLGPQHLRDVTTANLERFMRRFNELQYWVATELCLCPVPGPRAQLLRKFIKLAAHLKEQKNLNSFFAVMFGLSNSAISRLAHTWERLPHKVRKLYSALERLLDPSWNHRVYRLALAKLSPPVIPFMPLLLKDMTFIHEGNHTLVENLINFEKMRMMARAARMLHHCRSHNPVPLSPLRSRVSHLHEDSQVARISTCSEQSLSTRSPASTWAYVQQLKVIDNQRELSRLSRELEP
How it was run: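 Nucleotide exchange followed as fluorescence loss when BODIPY-GDP leaves Rap1B (480 nm excitation, 540 nm emission), read at 5 min intervals over 30 min. Reaction: 100 nM EPAC1, 250 nM RAP1B-BODIPY-GDP, 50 uM GDP; ATA and DMSO define normalization.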

Activity change, negative = inhibition, inactive:
COc1cccc(Cc2nc3cccnc3n2C2CCN(C(=O)c3n[nH]c4c3CCCC4)CC2)c1 26.7%
O=C(O)CCNC(=O)c1ccccc1 -10.9%
COCc1ccc(CN2Cc3cc(Cl)ccc3OC(C)C2)o1 (stereo not given) 8.83%
C/C(=C\c1ccco1)CN1CCOc2ccc(C(C)(O)COc3ccccc3)cc2C1 (stereo not given) -2.04%
CCC[C@@H]1C[C@@H](C(=O)N[C@@H]([C@H]2O[C@H](SC)[C@H](O)[C@@H](O)[C@H]2O)[C@H](C)Cl)N(C)C1 19.1%
NC(C(=O)O)[C@H](O)C(=O)O (stereo not given in full) 20.6%
O=C(O)C1OC(O)C(O)C(O)C1O (stereo not given) -18.6%
O=C(c1ccncc1)N1CCC2(CC1)CN(c1ncccn1)C2 15.2%
NCCCNCCCCN(CCCN)/[N+]([O-])=N/O 4.33%
CCC1CN(CCNC(=O)c2cccc(N3CCCC3=O)c2)Cc2cc(OC)ccc2O1 (stereo not given) 4.01%
Cn1cnc2c1c(=O)[nH]c(=O)n2C
CC(C)NC(=O)N1CCCC2(CCN(S(=O)(=O)c3ccccc3)CC2)C1 17.9%
CCCN(CCC)c1ccc(/C=C/c2ccnc3ccccc23)cc1 417%
COc1ccc(C(=O)N2CCC[C@@]3(CCN(C(=O)Nc4cccc(F)c4)C3)C2)cc1 18.1%
CC1=NN(c2ccccc2)C(=O)C1
Cc1c(C(=O)NCc2ccco2)cnn1-c1ncc2c(n1)-c1ccccc1CC2 7.46%
COCC(=O)N1CCC2(CC1)CN(C(=O)Nc1cccc(C#N)c1)C2 1.9%
CCN(CC)CCNC(=O)c1cc(Cl)c(N)cc1OC
NCCCNCCCCNCCCN
CN(C)C/C=C(/c1ccc(Br)cc1)c1cccnc1
CCOc1ccc2ccccc2c1C(=O)N[C@@H]1C(=O)N2[C@@H]1SC(C)(C)[C@@H]2C(=O)O 5.46% [at 75.8 µM]
C/C=C/C=C/C(=O)O -1.84%
O=C(c1cccc(F)c1)N1CCC2(CC1)CN(c1ccncc1)C2 7.63%
COc1cccc(Cn2c(=O)c(C)nc3cnc(N(C)C)nc32)c1 2.21%
CN(C)c1ncc2nc(-c3ccc(F)cc3)c(=O)n(Cc3ccc(F)cc3)c2n1 6.18%
O=C(OC1C[C@@H]2CC3C[C@H](C1)N2CC3=O)c1c[nH]c2ccccc12 (stereo not given in full) 19.8%
COc1ccccc1-n1cc(CN2CCC3(CCC(CNC(=O)c4ccccc4)O3)CC2)cn1 (stereo not given) 11.4%
CN(N=O)C(=O)N[C@@H]1[C@@H](O)[C@H](O)[C@@H](CO)O[C@@H]1O 12.8% [at 75.8 µM]
NCCCC(=O)O
COC(=O)c1cccc(C(=O)NCc2nc(-c3cccc(NC(=O)c4ccoc4C)c3)oc2C)c1 0.0592%
Cc1ccc(-c2nn(C(C)(C)C)c3ncnc(N)c23)cc1
NC(=O)NCC(N)C(=O)O (stereo not given) -10.1%
NCCc1cnc[nH]1
CCCCCCCCCCCCCCCCCCCCCCO 9.98%
Cc1ccc(C(C)CCN2CCOc3ccc(CN4CCOCC4)cc3C2)o1 (stereo not given) 2.35%
COc1c2c(c(C(=O)/C=C/C(C)=C/c3ccccc3)c3c1OCO3)CCN(C)C2 10%
COc1ccc(O)cc1 12.2%
CC(=O)NC(Cc1ccccc1)C(=O)O (stereo not given) 8.72%
CN(C)c1ncc2ncc(=O)n(CCC#N)c2n1 7.43%
Cc1c(C(=O)N2CC3CCC2C3)sc2ncnc(NCc3ccco3)c12 (stereo not given) 5.49%
Cc1c(-c2ccccc2)oc2c(C(=O)OCCN3CCCCC3)cccc2c1=O -10.5% [at 75.8 µM]
Cn1cccc1C(=O)N1CCC2(CCN(Cc3ccncc3)CC2)CC1 15.3%
C#Cc1cccc(C(=O)NCc2nc(-c3cccc(NC(=O)c4ccccn4)c3)oc2C)c1 -5.39%
COc1ccccc1CN1CCCC2(CCN(S(C)(=O)=O)CC2)C1 20%
COC(=O)c1cccc(C(=O)N2CCc3c(C(=O)OC)c(OCc4ccccn4)cc(=O)n3CC2)c1 3.21%
CCCCCC(O)/C=C/C=O (stereo not given) 26.4%
Cc1noc(C)c1-c1nc(Nc2ccncc2)c2ccccc2n1 20.5%
Cn1cc(-c2nc3cnc(N4CCNCC4)nc3n(CCc3ccccc3)c2=O)c2ccccc21 35.7%
COc1ccccc1CNc1ncnc2ccc(-c3ccoc3)cc12 -0.75%
COC(=O)N1CCC2(CCN(C(=O)Nc3ccccc3)CC2)CC1 13.7%
O=C1CCN(Cc2ccc([N+](=O)[O-])cc2)CCN1[C@H](CO)Cc1ccccc1 11.4%
COc1cccc(C(=O)NCC2Cc3cccc(-c4cccnc4)c3O2)c1 (stereo not given) -20.9%
NC(N)=NC(=O)Cc1c(Cl)cccc1Cl
CC1(C)O[C@H]2CC(=O)OC[C@]23[C@H]2CC[C@@]4(C)[C@H](c5ccoc5)OC(=O)[C@H]5O[C@]54[C@]2(C)C(=O)C[C@@H]13 -17.3%
COc1cccc(-c2cncnc2N(C)Cc2ccco2)c1 7.03%
COc1ccc(CN2CCC(=O)N([C@H](CO)CC(C)C)CC2)cc1 0.258%
CCN(CC)CCOC(=O)c1ccc(N)cc1Cl 27.7%
COCCn1c(=O)c(C)nc2cnc(Nc3ccccc3)nc21 15.9%
C=C(C(=O)O)[C@@H]1CC[C@@]2(C)CCC[C@](C)(O)[C@@H]2C1 20%
COc1ccc(CN2CCCC(c3nc(-c4ccncc4)ncc3-c3ccccc3)C2)c(OC)c1OC (stereo not given) 3.05%
NC/C=C\C(=O)O
COc1cc(OC)c(OC)cc1CN1CCCC(n2cc(C(=O)N3CCCCC3)nn2)C1 (stereo not given) 10.7%
C=C[C@]1(C)Cc2occ(C)c2C[C@H]1C(=C)C(=O)O -2.87%
COc1ccc(C(=O)C[N+]2(C)CCOCC2)cc1 20.6%
NS(=O)(=O)c1cc2c(cc1Cl)NC=NS2(=O)=O
Cn1c(=O)c2[nH]c(-c3ccccc3)nc2n(C)c1=O -2.72% [at 75.8 µM]
COc1ccc(C(=O)N2CCC3(CCCN(c4ccncc4)C3)CC2)cc1 -0.242%
Nc1ccc(S(=O)(=O)Nc2ccccc2)cc1 1.59%
CC(C)Nc1cccnc1N1CCN(C(=O)c2cc3cc(NS(C)(=O)=O)ccc3[nH]2)CC1 16.3%
CN(CC[C@@H](Oc1ccc(C(F)(F)F)cc1)c1ccccc1)CC(=O)O 2.67% [at 75.8 µM]
COc1ncc2nc(-c3cccs3)c(=O)n(CCc3ccccc3)c2n1 5.25%
O=C(/C=C/c1ccc(O)cc1)c1ccccc1O -7.71%
COc1ccc2c(c1)-c1nc(-n3ncc(C(=O)NC[C@@H]4CCCN5CCCC[C@H]45)c3C)ncc1CC2 8.08%
CN[C@@H]1[C@H](O[C@H]2[C@H](O[C@H]3[C@H](O)[C@@H](O)[C@H](N=C(N)N)[C@@H](O)[C@@H]3N=C(N)N)O[C@@H](C)[C@]2(O)CO)O[C@@H](CO)[C@H](O)[C@H]1O 10.2%
Cc1onc(-c2ccccc2Cl)c1C(=O)N[C@@H]1C(=O)N2[C@@H]1SC(C)(C)[C@@H]2C(=O)O 22.4% [at 75.8 µM]
C#Cc1cccc(Nc2ncnc3cc(OCCOC)c(OCCOC)cc23)c1 10.8%
COc1ccccc1CNc1nc(-c2ccoc2)nc2ccccc12 0.0463%
C[C@H](CCCC(C)(C)O)[C@H]1CC[C@H]2[C@@H]3CC=C4C[C@@H](O)CC[C@]4(C)[C@H]3CC[C@]12C 1.84%
CC(=O)N1CCC2(CCCN(Cc3ccc(C#N)cc3)C2)CC1 8.08%
O=C1[C@H]2[C@H](C=CC[C@H]2C(=O)N2CCN(c3ccccc3)CC2)CCN1Cc1ccccc1 2.85%
COc1ccc(-c2cn(Cc3ccc([N+](=O)[O-])cc3)nn2)cc1 -11.5%
COc1ccc(CNc2ncnc3ccc(-c4ccccc4OC)cc23)c(OC)c1 -13.9%
Cc1noc(C)c1-c1cc(Nc2ccc(F)cc2)ncn1 6.59%
N#Cc1cccc(-c2nc(NCc3ccccc3)c3ccccc3n2)c1 -8.25%
C=C(NC(=O)C(=C)NC(=O)c1csc(C2=NC3c4csc(n4)C4NC(=O)c5csc(n5)C(C(C)(O)C(C)O)NC(=O)C5CSC(=N5)C(=CC)NC(=O)C(C(C)O)NC(=O)c5csc(n5)C3(CC2)NC(=O)C(C)NC(=O)C(=C)NC(=O)C(C)NC(=O)C(C(C)CC)NC2C=Cc3c(C(C)O)cc(nc3C2O)C(=O)OC4C)n1)C(N)=O (stereo not given) 5.96%
O=C(c1cccnc1)C1CCCN(Cc2ccc3c(c2)CN(C(=O)c2cnccn2)CCO3)C1 (stereo not given) 16.1%
CN[C@H](CC(=O)O)C(=O)O
Cc1csc(SCC(=O)N2CCOc3ccc(C(O)C4CCCCC4)cc3C2)n1 (stereo not given) -7.38%
CCCCCCCC/C=C\C/C=C\C/C=C\CCCC(=O)O 9.96% [at 15.3 µM]
CC(=O)NCCNc1ncncc1-c1ccccc1C(F)(F)F 4.85%
CN(Cc1ccco1)c1ccnc(-c2ccoc2)n1 15.8%
CCC1CN(CCNC(=O)c2scc3c2OCCO3)Cc2cc(OC)ccc2O1 (stereo not given) 22.2%
C/C(=C(/CCO)SSCC1CCCO1)N(C=O)Cc1cnc(C)nc1N (stereo not given)
CN(C)C(=O)c1ccc(/C=C/c2ccnc3ccccc23)cc1 -15.1%
CCC1CN(CCNC(=O)c2cccc(C(=O)OC)c2)Cc2cc(OC)ccc2O1 (stereo not given) 5.67%
NS(=O)(=O)c1cc2c(cc1Cl)NC(C(Cl)Cl)NS2(=O)=O (stereo not given)
C[C@@H]1/C(=N/O)CC2C[C@@H]1C2(C)C 18.2%
CN1CCN(C2Cc3ccccc3Sc3ccc(Cl)cc32)CC1 (stereo not given)
CCC(=O)Nc1ccc(O)cc1 15.8%
COc1ccccc1CNc1ccnc(-c2ccccc2CN(C)C)n1 3.31%
C1CCN2C[C@H]3C[C@H](CN4CCCCC34)C2C1 (stereo not given in full)
CN[C@@H]1[C@H](O)[C@H](NC)[C@H]2O[C@@]3(O)C(=O)C[C@@H](C)O[C@H]3O[C@@H]2[C@H]1O
CCOC(=O)CN(C)C(=O)c1cnn(-c2ncc3c(n2)-c2ccccc2CCC3)c1C 5.18%
c1ccc(CNc2ccnc(-c3ccc4c(c3)OCO4)n2)cc1 8.61%
CC[C@H]1NC(=O)[C@@H](NC(=O)c2ncccc2O)[C@@H](C)OC(=O)[C@H](c2ccccc2)NC(=O)[C@@H]2CC(=O)CCN2C(=O)[C@H](Cc2ccccc2)N(C)C(=O)[C@@H]2CCCN2C1=O 18.3%
